Data: the supplement of paper PMC4166925
± gives the standard deviation of the averaged measurements. In all, about 33,000 sequences were measured (“E-score (dimensionless, -0.5 to 0.5)”: median about -0.049, highest 2% from about 0.37 on). The list shows a part of the results.

system: T1, PmTbr T-box DNA-binding domain (GST fusion); assay: PBM E-score of 8-mer (E-score (dimensionless, -0.5 to 0.5)); Tbr is Tbrain of the sea star Patiria miniata (Pm) or the sea urchin Strongylocentrotus purpuratus (Sp); higher = stronger binding preference; most listed sequences are background and not binding sites; settings: the construct has about 5 more residues each side
T1 sequence: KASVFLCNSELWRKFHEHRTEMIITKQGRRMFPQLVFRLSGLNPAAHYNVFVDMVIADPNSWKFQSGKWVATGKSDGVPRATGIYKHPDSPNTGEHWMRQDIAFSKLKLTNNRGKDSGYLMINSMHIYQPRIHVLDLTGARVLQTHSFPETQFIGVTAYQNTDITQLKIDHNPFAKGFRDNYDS
Experimental: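 Universal protein-binding microarray (Agilent AMADID 016060, 60-bp probes with a 35-bp variable region) incubated with 200 nM GST-fused Patiria miniata Tbr T-box DNA-binding domain (residues 272-466) in PBS pH 7.5. Scored for every ungapped 8-mer (given with its reverse complement) by the Universal PBM Analysis Suite as E-score (modified Wilcoxon-Mann-Whitney enrichment, range -0.5 to 0.5; >0.45 counts as bound) and Z-score of median probe intensity. Two replicate arrays (datasets 1 and 2).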
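Further: 200 nM protein in PBS on universal arrays averaged over duplicate arrays.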

Row | Sequence | PBM E-score of 8-mer
1 | AGGAAGAC | -0.0858 ± 0.05
2 | ACGCCTCA | 0.31 ± 0.0035
3 | ATCGGCGC | 0.092 ± 0.071
4 | GCATTAAC | 0.0905 ± 0.054
5 | GGTATAAC | -0.05 ± 0.045
6 | TCGGGGCA | -0.234 ± 0.0057
7 | TCATCGGA | -0.237 ± 0.0091
8 | CCAGAAGG | 0.0181 ± 0.0083
9 | GTGCTTAA | -0.0304 ± 0.032
10 | TAGGATAA | -0.135 ± 0.012
11 | CGCTAACC | 0.256 ± 0.017
12 | ATCGTCAC | 0.403 ± 0.0068
13 | ACATTTTC | 0.157 ± 0.062
14 | GACCTCCC | -0.178 ± 0.0044
15 | GGACATGA | -0.0323 ± 0.0046
16 | ATCCTAAA | -0.391 ± 0.069
17 | GCAAGTCA | 0.14 ± 0.025
18 | ACTGACAA | 0.166 ± 0.009
19 | ACAACTAA | 0.135 ± 0.029
20 | ACCTAATA | 0.156 ± 0.012
21 | AATTATCC | -0.0715 ± 0.11
22 | ACATGGTA | 0.0743 ± 0.0085

Row | Sequence | PBM E-score of 8-mer
23 | ATGAGACC | -0.213 ± 0.023
24 | CAAGGGCA | -0.0494 ± 0.062
25 | ACGCCATC | 0.143 ± 0.031
26 | ATCAAAGG | -0.137 ± 0.0037
27 | CCACCGAA | -0.0817 ± 0.054
28 | ATTCATGA | -0.288 ± 0.025
29 | GTGTAATA | 0.229 ± 0.089
30 | ATGGCCAA | -0.191 ± 0.003
31 | GCGGGCCA | 0.0195 ± 0.055
32 | CTCTTGTC | -0.0139 ± 0.029
33 | TACATTAA | -0.219 ± 0.025
34 | AGATTTAG | 0.00196 ± 0.0076
35 | TACTGGGA | -0.131 ± 0.035
36 | AGCGAGGG | 0.1683 ± 0.0013
37 | AGTGCGAC | 0.37 ± 0.012
38 | CGAAAGAA | 0.0356 ± 0.063
39 | ACCCGAGG | -0.102 ± 0.066
40 | TGTGTTAA | 0.365 ± 0.029
41 | ATGGTTTA | -0.159 ± 0.062
42 | CCATTATA | -0.0169 ± 0.016
43 | CTCGTTGC | -0.0582 ± 0.016
44 | GTACACAA | 0.0651 ± 0.0098

Row | Sequence | PBM E-score of 8-mer
45 | GTACAACA | 0.0279 ± 0.061
46 | ATACATGC | -0.171 ± 0.024
47 | CGCGTTCA | 0.108 ± 0.0048
48 | CATGCCGG | 0.0193 ± 0.046
49 | CTATGACA | 0.0502 ± 0.04
50 | GCAGGAAC | -0.0921 ± 0.0075
51 | CGTCTTGA | 0.0501 ± 0.12
52 | ACGATGGC | 0.138 ± 0.045
53 | AACAGAAA | 0.0391 ± 0.03
54 | AGCATTAG | -0.185 ± 0.058
55 | ATCGTTGA | -0.173 ± 0.031
56 | ATCGTCAA | 0.0469 ± 0.0067
57 | CACCTTAG | 0.4473 ± 0.0023
58 | ACCCACGT | 0.206 ± 0.017
59 | CTCTCTGC | -0.164 ± 0.018
60 | AAACGGTA | -0.0794 ± 0.096
61 | ACATTTAT | -0.0187 ± 0.078
62 | GCTCTTTA | -0.393 ± 0.017
63 | GCAACCCC | 0.0223 ± 0.014
64 | ACTGAGAA | -0.00583 ± 0.037
65 | ACGGACTC | -0.221 ± 0.041
66 | ATAAATGG | -0.252 ± 0.0056

Row | Sequence | PBM E-score of 8-mer
67 | CGGGATTA | -0.304 ± 0.042
68 | ATGACGAG | -0.125 ± 0.076
69 | CGTATCCA | -0.309 ± 0.11
70 | GAATAGTA | -0.0941 ± 0.0043
71 | GGATAAGA | -0.0567 ± 0.028
72 | AACACGCC | 0.281 ± 0.0074
73 | AGTAAATC | -0.0816 ± 0.092
74 | GAAATGTC | 0.0434 ± 0.029
75 | AAGATTGA | 0.0116 ± 0.077
76 | CGGACAAG | -0.0464 ± 0.025
77 | CACTCCCG | 0.209 ± 0.0078
78 | CTAAGAAG | 0.13 ± 0.039
79 | GAGCGACC | -0.0895 ± 0.13
80 | CAAACCCA | -0.0176 ± 0.0012
81 | ACCAATAG | -0.1482 ± 0.00068
82 | CCTCTGCC | 0.0232 ± 0.017
83 | AATGCCCG | 0.0543 ± 0.049
84 | AAGCACCA | -0.0877 ± 0.011
85 | AGTGCTTG | -0.164 ± 0.036
86 | CGAATGTC | -0.0275 ± 0.0064
